# Laboratory results from PubChem BioAssay AID686978 (National Center for Advancing Translational Sciences (NCATS), 2013).
# The campaign covered roughly 420,000 compounds. About 64,000 (15%) were called active. This list was built around the results that the source calls inconclusive (neither active nor inactive); the mix of calls is not that of the screen. The call rests on the fitted dose curve; in most records, active means well fitted inhibition curve with a large enough effect; inconclusive means small, poorly fitted or top-dose-only effect; inactive means flat fitted curve, though single readings scatter. No potency is given beside an inconclusive call; the fits are too rough.
# Test: qHTS for Inhibitors of human tyrosyl-DNA phosphodiesterase 1 (TDP1): qHTS in cells in absence of CPT; further: nearly all actives have a fitted effect of over 55% in size
# Conditions: DT40 Tdp1-/- hTDP1 cells, no CPT, ATP luminescence, 48 h; series mostly up to 46.2 µM
# Summary of the method: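 Readout: luminescence from CellTiter-Glo after 30 min in the dark at RT. Cells: DT40 Tdp1-/- with stable hTDP1, 400/well. Exposure: compounds alone, ≥48 hr, 37 °C.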
# Potency means the concentration at half of the fitted maximal effect; tags describe the fitted curve by direction and shape.
row,Structure (SMILES),Potency
1,COC(=O)CN1C(=O)CSc2ccc(S(=O)(=O)Nc3cccc(C)c3C)cc21,"inconclusive [inhibitor, single point]"
2,Cc1nc(P(=O)(c2ccccc2)c2ccccc2)c(N2CCOCC2)o1,inactive
3,CCOC(=O)Cc1c(Sc2ccccc2)c2ccccc2n1C,"inconclusive [inhibitor, single point]"
4,N#CCCN(Cc1ccccc1)C(CCc1ccccc1)C(=O)NC1CCCCC1 (stereo not drawn),"inconclusive [inhibitor, single point]"
5,Cc1ccc(C)c(N2CCN(S(=O)(=O)c3cccc4cccnc34)CC2)c1,"inconclusive [inhibitor, single point]"
6,CCCOc1ccc(CNC(=O)c2ccc(-n3c(C)cc4c3CCC(C)C4)cc2)cc1 (stereo not drawn),"inconclusive [inhibitor, single point]"
7,Cc1ccc(S(=O)(=O)N2CC3CCCN3c3ccc(C(F)(F)F)cc32)cc1 (stereo not drawn),"inconclusive [inhibitor, single point]"
8,CC(C)C[C@@H](CN1CCC[C@H]1CN1C(=O)C(=O)NC[C@@H]1Cc1ccccc1)N1C[C@H](Cc2ccccc2)N(CC2CCCCCC2)C(=O)C1=O,"inconclusive [inhibitor, single point]"
9,O=C(Nc1ccc2c(c1)OCO2)c1ccc2c(c1)OCO2,"inconclusive [inhibitor, single point]"
10,CCCCCCN1CCN(C2CN(CCc3ccccc3)S(=O)(=O)C2)CC1 (stereo not drawn),active: 16.4 µM
11,C/C=C/c1cc(CN2CCN(c3ccc(OC)cc3)CC2)c(O)c(OC)c1,"inconclusive [inhibitor, partial curve]"
12,CC(=O)NCCOC(=O)c1nn(Cc2ccccc2)c(=O)c2ccccc12,"inconclusive [inhibitor, single point]"
13,Cc1cc(C)n(-c2cc(C(C)(C)C)nc3c(-c4ccc(Cl)cc4)cnn23)n1,"inconclusive [inhibitor, single point]"
14,CCOC(=O)c1ccc(S(=O)(=O)n2c(CN3CCCCC3)nc3ccccc32)cc1,"inconclusive [inhibitor, single point]"
15,CCOc1ccccc1N(CC(=O)NC1CCCCC1)C(=O)CCC(=O)Nc1nccs1,"inconclusive [inhibitor, single point]"
16,CCOC(=O)c1ccc(Cn2cnc3ccccc3c2=O)cc1,"inconclusive [inhibitor, single point]"
17,CCO[C@H]1c2c(ccc3ccc(=O)oc23)OC(C)(C)[C@@H]1O,inactive
18,O=C(NC1CCCCC1)N1CCNCC1,inactive
19,CCOc1ccccc1NC(=O)CCCNC(=O)c1ccc(Cl)cc1,inactive
20,Cc1ccc(C)c(N2CCN(C(=O)c3ccc4c(c3)N(Cc3ccc(F)cc3)C(=O)c3ccccc3S4=O)CC2)c1 (stereo not drawn),active: 10.3 µM
21,COc1cccc(N2CCN(C(=O)Nc3ccc4c(c3)NC(=O)CO4)CC2)c1,"inconclusive [inhibitor, partial curve]"
22,CCOC(=O)c1ccc(-c2cccc(-c3cc(=O)oc4cc(OC)cc(OC)c34)c2)cc1,"inconclusive [inhibitor, single point]"
23,CC(C)OC(=O)c1c(NC(=O)C2c3ccccc3Oc3ccccc32)sc2c1CCCC2,"inconclusive [inhibitor, single point]"

row,Structure (SMILES),Potency
1,COc1ccccc1CNC(=O)c1cc(C2CC2)nc2c1cnn2C(C)C,"inconclusive [inhibitor, single point]"
2,O=c1[nH]c(SCc2ccccc2F)nc2ccccc12,"inconclusive [inhibitor, single point]"
3,COc1cc(OC)c(NC(=O)CCc2c(C)nc3cc(-c4ccccc4OC)nn3c2C)cc1Cl,"inconclusive [inhibitor, single point]"
4,COc1ccccc1-c1noc(CCC(=O)Nc2ccc(C)cc2C)n1,"inconclusive [inhibitor, partial curve]"
5,Cn1cccc1C(=O)N1CCC2(CCCN(Cc3ccc(C#N)cc3)C2)CC1,"inconclusive [inhibitor, single point]"
6,COc1ccc(CCNC(=O)COC(=O)C2CC2C)cc1 (stereo not drawn),inactive
7,COC(=O)c1cc(CNC(=O)c2cccc(F)c2)cc(NC(=O)c2ccccc2OC)c1,"inconclusive [inhibitor, full curve, poor fit]"
8,O=C(Nc1cccc(-c2cn3ccsc3n2)c1)c1ccccc1,"inconclusive [inhibitor, partial curve]"
9,CC(=O)C1C(C)CC2C3CCC4CC(=O)CCC4(C)C3CCC21C (stereo not drawn),active: 20.6 µM
10,COc1ccc(Cl)cc1-c1cc(C(=O)NCc2ccco2)[nH]n1,"inconclusive [inhibitor, single point]"
11,Cc1ccccc1NC(=S)N(Cc1cccs1)C1CCCC1,"inconclusive [inhibitor, partial curve]"
12,O=C(CC1NCCc2ccccc21)Nc1cccc(Cl)c1 (stereo not drawn),"inconclusive [inhibitor, single point]"
13,O=C(CSc1nnnn1C1CCCCC1)N1CCc2ccccc21,inactive
14,COc1ccc(C(O)c2ncc(-c3cccc(F)c3)[nH]2)cc1F (stereo not drawn),"inconclusive [inhibitor, single point]"
15,O=C(COc1ccc(S(=O)(=O)NC2CCCCC2)cc1Cl)NCc1ccc2c(c1)OCO2,"inconclusive [inhibitor, single point]"
16,O=C(NC1CCCC1)C1CCN(S(=O)(=O)c2ccccc2)CC1,inactive
17,CC(C)C[C@H](NC(=O)c1nc[nH]c1C(=O)NCC(=O)OCc1ccccc1)C(=O)OCc1ccccc1,"inconclusive [inhibitor, single point]"
18,O=C(CN1C(=O)CCC1=O)Nc1ccc2c3c(cccc13)CC2,inactive
19,c1ccc(CCN(Cc2ccccc2)Cc2nc(C3CC3)no2)cc1,inactive
20,CN(C)NC(=O)c1ccc([N+](=O)[O-])s1,active: 16.4 µM
21,CCN(C[C@H]1N[C@@](Cc2ccccc2)(C(=O)OC)[C@H]2C(=O)N(Cc3ccccc3)C(=O)[C@@H]12)C(=O)Nc1ccc(C)cc1,active: 16.4 µM
22,CC(=O)Nc1cccc(NC(=O)c2cccc(OCc3ccccc3)c2)c1,active: 18.4 µM
23,C/C(Cl)=C/Cn1c(SCCN2CCOCC2)nc2c1c(=O)[nH]c(=O)n2C,inactive

row,Structure (SMILES),Potency
1,CC(C)c1nn2c(=O)cc(COC(=O)c3ccccc3NC(=O)C3CCCCC3)nc2s1,"inconclusive [inhibitor, full curve]"
2,Clc1ccc(CSc2nnc(-c3ccncc3)o2)c(Cl)c1,"inconclusive [inhibitor, single point]"
3,Cc1ccccc1CN(C)CCS(=O)(=O)c1cc(Cl)ccc1Cl,"inconclusive [inhibitor, single point]"
4,Cc1ccc2nc(N3C(=O)CNC3=S)sc2c1,"inconclusive [inhibitor, single point]"
5,CCSc1ccc([C@@H]2[C@H]3C(=O)N(C)C(=O)[C@H]3[C@]3(C(=O)OC)CCCCN23)cc1,active: 16.4 µM
6,CCn1ncc(Br)c1C(=O)Nc1c(C)nn(Cc2c(F)c(F)c(F)c(F)c2F)c1C,"inconclusive [inhibitor, partial curve, poor fit]"
7,COc1cc(-c2nc3ccccn3c2NCC2CCCO2)ccc1O (stereo not drawn),"inconclusive [inhibitor, single point]"
8,Cc1ccc2cc(C#N)c(NCCNC(=O)C3CCC3)nc2c1C,"inconclusive [inhibitor, partial curve]"
9,CC(C)CNC(=O)c1ccccc1NC(=O)CN(c1ccccc1)S(=O)(=O)N(C)C,inactive
10,CC1Cc2ccccc2N1C(=O)CSc1nnc(-c2ccccc2Cl)o1 (stereo not drawn),"inconclusive [inhibitor, single point]"
11,COc1cccc(NC(=O)N2CCN(c3ccc(C(F)(F)F)cn3)CC2)c1,inactive
12,COC(=O)C1=C(NC(=O)C2CCCCC2)CCS1,inactive
13,COc1ccc(NC(=O)CCNS(=O)(=O)c2ccc(NC(C)=O)cc2)cc1Cl,"inconclusive [inhibitor, full curve, poor fit]"
14,COc1ccc(NC(=O)CN2CCN(S(=O)(=O)c3ccc(C(C)C)cc3)CC2)cc1OC,"inconclusive [inhibitor, single point]"
15,CC1CN(C(=O)Nc2ccccc2)c2ccccc2-[n+]2ccsc21 (stereo not drawn),active: 11.6 µM
16,Cc1ccc(C(=O)Nc2ccccc2C(=O)NCc2ccccc2)cc1,"inconclusive [inhibitor, single point]"
17,N#C/C(=C\c1c[nH]c2ccccc12)C(N)=O,"inconclusive [inhibitor, partial curve]"
18,CCn1nc(C)c(C(=O)Nc2cc(Oc3ccc(Cl)cc3)cc([N+](=O)[O-])c2)c1C,"inconclusive [inhibitor, single point]"
19,COCc1nc2ccccc2n1Cc1ccccc1Br,active: 16.4 µM
20,CC1(C)CC(=O)C2=C(C1)OC1=C(C2)C(=O)CC(C)(C)C1,inactive
21,Nc1nc(-c2nc3ccccc3[nH]2)cs1,"inconclusive [inhibitor, single point]"
22,O=C(NCC1(N2CCOCC2)CCCCCC1)c1cnn(-c2nccc(-c3ccco3)n2)c1C1CC1,"inconclusive [inhibitor, partial curve]"
